Source: paper PMC6919601, “Identification of Plasmodium dipeptidyl aminopeptidase allosteric inhibitors by high throughput screening” (PLoS ONE, 2019)
Among all 110,000 compounds or so, about 230 (0.21%) showed an effect of 50% or more. This is one part of the list.

Biological target: DPAP1 (Plasmodium falciparum, UniProt Q8IIJ9)
Experiment: primary screen, percent inhibition; read by cleavage of a fluorogenic dipeptide substrate; higher = more effect of the substance
Set-up: species or system P. falciparum D10 trophozoite lysates; single well
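Note: 30 min substrate incubation versus DMSO and 10 µM JCP410 controls.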

Chain of DPAP1 (Q8IIJ9 whole entry, looked up): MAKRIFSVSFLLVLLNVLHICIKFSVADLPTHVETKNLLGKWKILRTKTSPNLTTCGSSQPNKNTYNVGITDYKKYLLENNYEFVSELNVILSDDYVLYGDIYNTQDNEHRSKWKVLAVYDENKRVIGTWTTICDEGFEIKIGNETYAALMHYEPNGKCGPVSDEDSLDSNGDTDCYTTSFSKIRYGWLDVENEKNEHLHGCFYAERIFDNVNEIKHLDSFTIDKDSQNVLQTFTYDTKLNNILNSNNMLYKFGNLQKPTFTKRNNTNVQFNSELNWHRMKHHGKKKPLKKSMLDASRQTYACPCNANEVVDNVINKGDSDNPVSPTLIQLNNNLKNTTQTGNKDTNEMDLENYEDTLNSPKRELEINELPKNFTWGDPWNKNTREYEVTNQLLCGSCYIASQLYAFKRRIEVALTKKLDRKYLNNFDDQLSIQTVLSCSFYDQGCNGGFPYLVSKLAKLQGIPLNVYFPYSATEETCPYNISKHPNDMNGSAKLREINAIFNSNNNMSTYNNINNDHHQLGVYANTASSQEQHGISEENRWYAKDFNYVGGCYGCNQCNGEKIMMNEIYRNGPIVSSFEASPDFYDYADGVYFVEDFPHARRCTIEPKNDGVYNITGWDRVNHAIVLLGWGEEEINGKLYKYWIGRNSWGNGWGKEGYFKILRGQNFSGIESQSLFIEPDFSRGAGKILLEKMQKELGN

SMILES	% Inhibition @ 10 uM [%]
O=C(c1ccc(COc2ccc3ccccc3c2)o1)N1N=C(C(F)F)CC1(O)C(F)F (centres unmarked)	1.43
O=C(NCc1ccccn1)c1cnc2sccn2c1=O	-2.29
Cc1cc(C(F)(F)F)c2c(n1)sc1c(=O)[nH]c(=O)[nH]c12	4.61
Cn1nc(C(=O)Nc2ccc3c(c2)OCO3)cc1C(=O)O	0.214
Nc1ccc(S(=O)(=O)N2CCOCC2)cc1	-0.856
Cc1nnc(N2CCC(C(=O)NCCC(C)C)CC2)c2nn(-c3ccccc3)c(C)c12	8.13
O=C(CS(=O)(=O)c1ccccc1)Nc1ccc(S(=O)(=O)Nc2ccccn2)cc1	4.67
CC(C)CNC1CC(=O)N(c2ccc(Cl)cc2)C1=O (centres unmarked)	-2.8
Cc1nc2c3ccccc3n3c(CCCC(=O)N4CCC(C(N)=O)CC4)nnc3n2n1	-1.21
Cc1cc(C)nc(NS(=O)(=O)c2ccc(NC(=O)NC(=O)c3ccccc3)cc2)n1	0.00784
NC(=O)c1c(NC(=O)c2cccs2)sc2c1CCCC2	0.658
O=C(Nc1nnc(-c2ccccc2)s1)c1ccc(F)cc1	5.94
COCc1nc2ccccc2[nH]1	1.72
Cc1ccc(-n2nc3c(c2NC(=O)COc2ccccc2)CS(=O)(=O)C3)cc1	-1.12
O=C(Nc1ccccc1C(=O)O)c1cccs1	-0.969
Cc1ccc(-c2cc(N)n(S(=O)(=O)c3ccc(F)cc3)n2)cc1	1.15
Cc1nc(SCc2ccccc2)c(C#N)c(C)c1C	34.7
Cc1ccccc1CNC(=O)Cn1ccc2cc(S(=O)(=O)N3CCCC3)ccc21	-0.177
CCOC(=O)c1cc(-c2ccc(OC)c(S(=O)(=O)NCc3ccc(Cl)cc3)c2)on1	-10.1
COc1ccccc1-c1nn2c(C3COc4ccccc4O3)nnc2s1 (centres unmarked)	7.5
O=C(CCCOc1ccc(Cl)cc1Cl)NCc1ccccn1	-3.71
CN1C(=O)c2ccc(N3C(=O)c4ccc([N+](=O)[O-])cc4C3=O)cc2C1=O	-4.01
CC(C)CC(NC(=O)Cc1ccccc1)P(=O)(O)O (centres unmarked)	0.634
O=C(c1nn2c(C(F)(F)F)cc(-c3ccccc3)nc2c1Cl)N1CCCCC1	1.67
Cc1ccc(-c2csc3ncnc(N4CCOCC4)c23)cc1	-8.18
CCCCNC(=O)C1CCC(CNc2nc(S)nc3ccccc23)CC1 (centres unmarked)	4.49

SMILES	% Inhibition @ 10 uM [%]
CCc1nc2ccc(C(=O)NC3CCCCCC3)cc2nc1CC	3.42
COC(=O)c1c(NC(=O)COc2cc(C)c(Cl)c(C)c2)sc(C)c1C	-4.7
CCC(C)NC(=O)CN(C)c1nn2c(=O)cc(C)nc2s1 (centres unmarked)	3
Cc1onc(-c2ccccc2Cl)c1C(=O)NC1=NCCS1	-1.85
O=C1CC(c2ccccc2Cl)Sc2ccccc2N1 (centres unmarked)	-2.67
Cc1cc2c(c(O)n1)C(c1ccccc1)C(C#N)=C(N)O2 (centres unmarked)	-0.366
O=[N+]([O-])c1ccc(N2CCN(Cc3c(F)cccc3F)CC2)cc1	-7.34
Cc1[nH]c2ccccc2c1C1CCN(S(=O)(=O)c2ccc(Br)cc2)CC1	0.66
CSC1=NSC2=NC(=O)/C(=C\c3ccc4c(c3)OCO4)C(=N)N12	1.39
Clc1ccc(-c2nc(-c3ccncc3)no2)c(Cl)c1	3.32
CCOC(=O)c1ccc2c(c1)C1C=CCC1C(c1ccc(F)cc1)N2 (centres unmarked)	-5.11
CCOc1ccccc1C(=O)Nc1ccc(NC(C)=O)cc1	1.49
CCn1c(C(O)(c2ccccc2)c2ccccc2)nc2ccccc21	-3.27
CC(Cc1ccccc1)N/C=C1/CC(=O)NC1=O (centres unmarked)	5.37
CC(C)C[C@H](NC(=O)OCc1ccc(OC(F)F)cc1)C(=O)NCC#N	-1.41
CCN1C(C(=O)c2ccccc2)=C(OC(=O)c2ccc(F)cc2)c2ccccc2S1(=O)=O	3.74
c1csc(-c2noc(CSc3nc4ccccc4[nH]3)n2)c1	-6.71
COc1ccc(NC(=O)NC2CCCCC2)c(OC)c1	2.82
CC(Cc1ccco1)NS(=O)(=O)c1csc(C(N)=O)c1 (centres unmarked)	-4.55
Cc1ccc(/C=C/C2=NC(=C\c3ccccc3F)/C(=O)O2)cc1	-0.945
O=C(O)C1C(C(=O)Nc2cccc(Br)c2)C2C=CC1C21CC1 (centres unmarked)	3.01
Cc1cc(NC=C2C(=O)CCCC2=O)no1	4.01
CC(=O)N1C(=N)S/C(=C/c2cc3ccccc3nc2Sc2ccccc2)C1=O	0.275
Brc1ccc2c(c1)c1c3c(nccn32)CCC1	-8.53
C=CCOCC(O)CSc1nc(C)cc(C)n1 (centres unmarked)	3.48
CC1=CCC2C(=O)N(c3ccc(C(=O)N4CCCCCC4)cc3)C(=O)C2C1 (centres unmarked)	-3.77

SMILES	% Inhibition @ 10 uM [%]
COc1cccc(C(=O)/N=c2\sc(C)c(-c3ccccc3)n2C)c1	-1.43
CC(C)(Oc1ccc(Cl)cc1)C(=O)Nc1cc(Cl)ccc1O	-10.8
CCOc1ccc(N2CCc3c2nc2ccccc2c3N)cc1	-1.85
Cc1ccc(NC(=O)C(=O)NC2CCCC2)cc1C	1.29
Cc1nn(CC(=O)NCc2cccs2)c(=O)c2cccn12	-0.542
O=c1c2cccnc2n(Cc2cc(=O)n3cc(Cl)ccc3n2)c(=O)n1CCc1ccccc1	-1.66
COc1ncnc2c1sc1nc(N3CCOCC3)c3c(c12)CCCC3	6.05
O=C(Cc1cccc2ccccc12)NCCOc1ccccc1Cl	-4.35
O=S(=O)(c1ccccc1)N1CCN(Cc2ccc(Cl)cc2Cl)CC1	8.98
Nc1ccc(S(=O)(=O)Nc2nc3ccccc3nc2Nc2ccccc2)cc1	-0.0372
O=C(O)CNC(=O)C/N=C/c1c(O)oc2ccccc2c1=O	-5.38
CCN(CC)C(=O)N1CCN(CCC#N)CC1	0.0345
CCS(=O)(=O)N1CCC2(CC1)OC(=O)C(C)=C2C(=O)N(C)Cc1ccccc1	1.73
O=C1N/C(=C/c2ccc(C(F)(F)F)cc2)C(=O)N1c1ccccc1	2.82
O=C(NCc1ccc2c(c1)OCO2)C1CCN(c2nn3cc(-c4ccc(F)cc4)nc3s2)CC1	-1.58
Cc1cccc(-c2nc(CS(=O)CC(=O)NCCc3ccccc3)c(C)o2)c1 (centres unmarked)	2.37
CCN1CCC(NCc2ccccc2Cl)CC1	-0.233
CCCOC(=O)CSC1=C(C#N)C(c2ccccc2Cl)CC(=O)N1 (centres unmarked)	0.345
Cc1ccc(CNC(=O)Cn2nc(-c3ccccc3)ccc2=O)cc1	0.514
Cc1cccc(N2CCN(S(=O)(=O)c3ccc(Cl)cc3)CC2)c1C	1.92
O=[N+]([O-])c1cccc(Nc2nc(OC(C(F)(F)F)C(F)(F)F)nc(N3CCOCC3)n2)c1	6.43
Cc1[nH]c(-c2ccc(F)cc2)cc1C(=O)NC1CCN(Cc2ccccc2)CC1	0.229
COc1ccc(N(CC(=O)Nc2cc(C)ccc2C)S(C)(=O)=O)cc1OC	-1.43
CCC1NCCNC1=O (centres unmarked)	3.93
FC(F)(F)c1cccc(-c2nnn3c2nc(Cl)c2ccccc23)c1	2.97
Cc1ccc(C(=O)Nc2nn(C)c3nc(C)c(Cl)c(C)c23)cc1	7.25

SMILES	% Inhibition @ 10 uM [%]
O=C(COCc1cc(-c2ccc3c(c2)OCO3)on1)NCCc1cccs1	4.11
COc1cccc2c1cc1c(=O)n(CC(=O)N3CCC(C(N)=O)CC3)nc(C)n12	-3.47
Cc1ccc(C(C)C)c(OCC(=O)Nc2cc([N+](=O)[O-])ccc2C)c1	-2.59
Brc1ccc(Cn2cnc3ccccc32)cc1	0.162
O=C(NCCCN1CCCC1=O)c1ccc2c(c1)sc1nc(-c3ccc(F)cc3)cn12	-2.07
COC(=O)C1=C(C)N=c2s/c(=C/c3ccc(F)cc3)c(=O)n2C1c1ccc(OC)c(OC)c1 (centres unmarked)	-3.75
CCN(Cc1ccccc1)C(=O)c1ccccc1C	4.03
O=C1/C(=C\c2ccc3c(c2)OCO3)S/C(=N\c2ccccc2)N1Cc1cccnc1	-3.69
O=C(Nc1ccc(Cl)c(Cl)c1)c1cccc(C(=O)Nc2ccc(Cl)c(Cl)c2)c1	-3.04
COc1cc(NC(=O)c2nn(C)cc2Br)c(OC)cc1Cl	-2.99
Clc1ccc2nc(NC3CCN(Cc4ccccc4)CC3)c3nncn3c2c1	4.33
COc1ccc(-c2cc(C(=O)O)c3c(-c4ccc(C)cc4)[nH]nc3n2)c(OC)c1	-0.901
CCOc1ccc(CCNC(=O)c2ccc3snnc3c2)cc1	3.24
Cc1ccc(CN2CCN(C(=O)CCN3C(=O)c4ccccc4C3=O)CC2)cc1	-1.84
Cc1ccccc1-c1nn2c(C3COc4ccccc4O3)nnc2s1 (centres unmarked)	45
CC(=O)c1ccc(N2CCN(CC(C)CCC=C(C)C)CC2)cc1 (centres unmarked)	-0.132
CC1=C(C(=O)OCC2CCCCC2)C(c2ccc(C)cc2)NC(=O)N1 (centres unmarked)	15.8
CCOc1cc2c(cc1OCC)C(c1ccc(Cl)cc1)NCC2 (centres unmarked)	-8.41
O=C(Nc1ccc(Cl)cc1)Nc1ccc(S(=O)(=O)Nc2ccc(F)cc2)cc1	-10.8
Cc1cc2ccccc2n1CCNC(=O)c1ccc(S(=O)(=O)N2CCCCC2)cc1	-0.472
Cc1ccccc1N1CCN(Cc2c(C)[nH]c3ccccc23)CC1	-4.58
O=C(c1ccc2c(Cl)c3c(nc2c1)CCCC3)N1CCN(C(=O)c2ccco2)CC1	4.41
COc1ccc(NS(=O)(=O)c2cccc(C(=O)Nc3ccc(C)cc3)c2)cc1	4.82
